Test results: US20260207767A1 (ANAVEON, published 2026)

T1: trimeric IL-2 receptor (CD25/CD122/CD132) on HEK-Blue IL-2 reporter cells (UniProt P01589 22-272; P14784 27-551; P31785 23-369, limits assumed)
T1 sequence (looked up) 1: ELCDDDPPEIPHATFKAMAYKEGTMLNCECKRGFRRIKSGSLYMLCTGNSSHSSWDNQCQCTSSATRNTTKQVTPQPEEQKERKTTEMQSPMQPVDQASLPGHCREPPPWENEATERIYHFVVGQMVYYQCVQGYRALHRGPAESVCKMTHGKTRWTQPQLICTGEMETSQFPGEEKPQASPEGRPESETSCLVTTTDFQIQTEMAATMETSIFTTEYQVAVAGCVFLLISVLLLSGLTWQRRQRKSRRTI
T1 sequence (looked up) 2: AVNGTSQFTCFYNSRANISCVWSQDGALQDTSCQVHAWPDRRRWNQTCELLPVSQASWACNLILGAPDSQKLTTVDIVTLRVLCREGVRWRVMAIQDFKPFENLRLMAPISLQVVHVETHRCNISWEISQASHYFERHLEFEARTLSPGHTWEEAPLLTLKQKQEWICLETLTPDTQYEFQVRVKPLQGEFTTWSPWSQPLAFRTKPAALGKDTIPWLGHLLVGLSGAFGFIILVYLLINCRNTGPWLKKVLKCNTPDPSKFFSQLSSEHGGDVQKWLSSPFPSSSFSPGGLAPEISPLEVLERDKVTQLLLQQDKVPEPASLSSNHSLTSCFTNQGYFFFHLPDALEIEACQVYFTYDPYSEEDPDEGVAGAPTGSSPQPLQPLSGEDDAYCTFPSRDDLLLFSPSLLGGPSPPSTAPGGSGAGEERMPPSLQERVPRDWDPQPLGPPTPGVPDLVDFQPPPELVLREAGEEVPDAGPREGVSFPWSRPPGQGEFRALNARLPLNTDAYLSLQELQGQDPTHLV
T1 sequence (looked up) 3: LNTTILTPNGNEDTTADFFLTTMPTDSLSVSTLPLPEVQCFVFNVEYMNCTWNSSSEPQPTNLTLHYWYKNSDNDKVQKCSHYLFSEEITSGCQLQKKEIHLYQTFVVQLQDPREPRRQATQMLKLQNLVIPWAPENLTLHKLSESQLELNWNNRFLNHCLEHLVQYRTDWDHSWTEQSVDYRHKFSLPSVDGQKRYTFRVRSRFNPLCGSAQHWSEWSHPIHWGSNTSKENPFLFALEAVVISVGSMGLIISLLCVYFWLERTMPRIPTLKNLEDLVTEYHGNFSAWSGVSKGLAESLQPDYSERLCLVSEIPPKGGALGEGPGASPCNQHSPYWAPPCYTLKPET

T2: high affinity trimeric IL-2R on CD4+CD25+FoxP3+ Treg cells of murine splenocytes (mouse, UniProt P01590 22-268; P16297 27-539; P34902 23-369)
T2 sequence (looked up) 1: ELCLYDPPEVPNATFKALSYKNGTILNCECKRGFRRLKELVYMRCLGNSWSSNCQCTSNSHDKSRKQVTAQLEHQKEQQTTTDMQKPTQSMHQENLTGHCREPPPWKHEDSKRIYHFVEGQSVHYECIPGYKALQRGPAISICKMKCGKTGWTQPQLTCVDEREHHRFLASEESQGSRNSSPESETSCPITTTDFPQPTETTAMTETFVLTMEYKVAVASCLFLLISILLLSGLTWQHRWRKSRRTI
T2 sequence (looked up) 2: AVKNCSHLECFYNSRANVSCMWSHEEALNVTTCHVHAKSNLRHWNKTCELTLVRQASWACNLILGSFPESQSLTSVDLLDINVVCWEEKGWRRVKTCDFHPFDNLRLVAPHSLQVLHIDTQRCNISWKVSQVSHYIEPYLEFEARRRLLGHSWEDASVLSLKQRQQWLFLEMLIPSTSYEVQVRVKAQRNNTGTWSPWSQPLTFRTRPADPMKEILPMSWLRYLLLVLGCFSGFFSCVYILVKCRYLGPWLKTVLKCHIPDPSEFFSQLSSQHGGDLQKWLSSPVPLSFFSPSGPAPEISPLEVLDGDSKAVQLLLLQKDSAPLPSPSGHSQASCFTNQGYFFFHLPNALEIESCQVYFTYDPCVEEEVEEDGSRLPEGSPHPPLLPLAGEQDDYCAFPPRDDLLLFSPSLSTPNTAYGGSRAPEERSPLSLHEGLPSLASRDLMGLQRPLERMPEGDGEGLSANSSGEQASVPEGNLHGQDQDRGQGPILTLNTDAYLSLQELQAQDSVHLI
T2 sequence (looked up) 3: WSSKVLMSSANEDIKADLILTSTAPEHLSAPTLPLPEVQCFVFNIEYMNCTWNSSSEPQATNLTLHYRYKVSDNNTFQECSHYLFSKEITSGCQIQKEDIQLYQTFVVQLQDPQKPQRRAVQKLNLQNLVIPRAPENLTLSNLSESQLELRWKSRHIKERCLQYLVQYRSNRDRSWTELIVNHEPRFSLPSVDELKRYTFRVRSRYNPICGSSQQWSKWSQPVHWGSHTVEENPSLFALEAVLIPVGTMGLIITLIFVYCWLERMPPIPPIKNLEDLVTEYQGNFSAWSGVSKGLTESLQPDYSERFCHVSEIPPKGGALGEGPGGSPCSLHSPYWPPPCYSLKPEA

T3: His-tagged recombinant CD25 (UniProt P01589 22-213, limits assumed)
T3 construct: also called IL-2R alpha chain
T3 sequence (looked up): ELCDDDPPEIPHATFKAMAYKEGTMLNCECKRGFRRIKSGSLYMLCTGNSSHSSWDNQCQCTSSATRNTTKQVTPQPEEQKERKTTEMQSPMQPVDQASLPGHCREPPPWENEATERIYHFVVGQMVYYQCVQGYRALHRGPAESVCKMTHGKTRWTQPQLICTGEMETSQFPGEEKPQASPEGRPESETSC

B1: LPT269 (other)
heavy: EVQLVQSGAEVKKPGESLKISCKGSGYSFTNFYIHWVRQAPGQRLEWMGSIYPNYGDTAYNQKFKDRFVFSLDTSVSTAYLQISSLKAEDTAVYYCARGYSYAMDYWGQGTTVTVSSASTKGPSVFPLAPSSKSTSGGTAALGCLVKDYFPEPVTVSWNSGALTSGVHTFPAVLQSSGLYSLSSVVTVPSSSLGTQTYICNVNHKPSNTKVDKRV[not shown - human IgG1 Fc with changes]
light: DIQMTQSPSSVSASVGDRVTITCSASQGISGNFHLRPRDLISNINVIVLELKGSETTFMCEYADETATIVEFLNRWITFSQSIISTLTPTSSSTKKTQLQLEHLLLDLQMILNGINNYKNPKLTRMLTFKFYMPKKATELKHLQCLEEELKPLEEVLNLAQSKGDLNWYQQKPGKAPKLLIYHTSSLHSGVPSRFSGSGSGTDFTLTISSLQPEDFATYYCQYYSKDLLTFGGGTKLEIKRTVAAPSVFIFPPSDEQLKSGTASVVCLLNNFYPREAKVQWKVDNALQSGNSQESVTEQDSKDSTYSLSSTLTLSKADYEKHKVYACEVTHQGLSSPVTKSFNRGEC
notes: Antibody C IgG with IL-2CP in CDR-L1
B2: VBE401 (other)
heavy: EVQLVQSGAEVKKPGESLKISCKGSGYAFTNYLIEWVRQMPGKGLEWMGVINPGSGGTNYNEKFKGQVTISADKSISTAYLQWSSLKASDTAMYYCARWRGEGGGFHLRPRDLISNINVIVLELKGSETTFMCEYADETATIVEFLNRWITFSQSIISTLTPTSSSTKKTQLQLEHLLLDLQMILNGINNYKNPKLTRMLTFKFYMPKKATELKHLQCLEEELKPLEEVLNLAQSKGGGGYYAYFDVWGQGTTVTVSSASTKGPSVFPLAPSSKSTSGGTAALGCLVKDYFPEPVTVSWNSGALTSGVHTFPAVLQSSGLYSLSSVVTVPSSSLGTQTYICNVNHKPSNTKVDKRV[not shown - human IgG1 Fc with changes]
light: AIRLTQSPSSFSASTGDRVTITCKASQSVDYQGDSYMNWYQQKPGKAPKLLIYAASNLESGVPSRFSGSGSGTDFTLTISSLQSEDFATYYCQQSNEDPYTFGGGTKVEIKRTVAAPSVFIFPPSDEQLKSGTASVVCLLNNFYPREAKVQWKVDNALQSGNSQESVTEQDSKDSTYSLSSTLTLSKADYEKHKVYACEVTHQGLSSPVTKSFNRGEC
B3: LIZ707 (other)
heavy: EVQLVQSGAEVKKPGESLKISCKGSGYAFTNYLIEWVRQMPGKGLEWMGVINPGGGFYMPKKATELKHLQCLEEELKPLEEVLNLAQSKNFHLRPRDLISNINVIVLELKGSETTFMCEYADETATIVEFLNRWITFCQSIISTLTPTSSSTKKTQLQLEHLLLDLQMILNGINNYKNPKLTRMLTFKGGGSGGTNYNEKFKGQVTISADKSISTAYLQWSSLKASDTAMYYCARWRGEGYYAYFDVWGQGTTVTVSSASTKGPSVFPLAPSSKSTSGGTAALGCLVKDYFPEPVTVSWNSGALTSGVHTFPAVLQSSGLYSLSSVVTVPSSSLGTQTYICNVNHKPSNTKVDKRV[not shown - human IgG1 Fc with changes]
light: B2 light
notes: also called L1707

Legend:
[1] = molecular target: T1, trimeric IL-2 receptor …; experiment: cell-based or functional assay
[2] = molecular target: T2, high affinity trimeric IL-2R on …; experiment: cell-based or functional assay
[3] = molecular target: IL-2R on NK cells and CD8+ T cells of murine splenocytes (C57BL/6) (mouse); experiment: cell-based or functional assay
[4] = molecular target: T3, His-tagged recombinant CD25; experiment: SPR, CD25 captured
[5] = molecular target: anti-IL-2 antibody clone 5344; experiment: ELISA on clone 5344

Binder | EC50, HEK Blue IL-2 reporter assay (SEAP) [1] [pM] | EC50 Treg cells (nM), pSTAT5 [2] [nM] | EC50 CD8 cells (nM), pSTAT5 [3] [nM] | EC50 NK cells (nM), pSTAT5 [3] [nM] | Kd [4] [pM] | EC50 [5] [pM] | binding result [4]
B1 | 7.35 | < 0.016 | 32 | 1.7 | 120 | 240 | –
B2 | 4.35 | 2.6 | 32.2 | 34.3 | – | – | no binding (tested: 500 nM)
B3 | 8.35 | 3.8 | 12.5 | 5.3 | – | – | no binding (tested: 500 nM)
